{"source": "patent US20220267410A1", "about": "(UNIVERSITAT STUTTGART, published 2022)", "binders": {"B1": {"name": "scTNFR2(139)-Fc(Δab) (744) (Fc fusion)", "chain": "[about 150 residues not given here]GGGGSDKPVAHVVANPQAEGQLQWLNRRANALLANGVELRDNQLVVPSEGLYLIYSQVLFKGQGCPSTHVLLTHTISRIAVSYQTKVNLLSAIKSPCQRETPEGAEAKPWYEPIYLGGVFQLEKGDRLSAEINRPDYLNFRESGQVYFGIIALGGGGSDKPVAHVVANPQAEGQLQWLNRRANALLANGVELRDNQLVVPSEGLYLIYSQVLFKGQGCPSTHVLLTHTISRIAVSYQTKVNLLSAIKSPCQRETPEGAEAKPWYEPIYLGGVFQLEKGDRLSAEINRPDYLNFRESGQVYFGIIALGGSGGGGSGGDKTHTCPPCPAPPVAGPSVFLFPPKPKDTLMISRTPEVTCVVVDVSHEDPEVKFNWYVDGVEVHNAKTKPREEQYNSTYRVVSVLTVLHQDWLNGKEYKCKVSNKGLPSSIEKTISKAKGQPREPQVYTLPPSRDELTKNQVSLTCLVKGFYPSDIAVEWESNGQPENNYKTTPPVLDSDGSFFLYSKLTVDKSRWQQGNVFSCSVMHEALHNHYTQKSLSLSPGK", "notes": "Hexavalent dimer through the Fc(Δab) region; no His tag"}, "B2": {"name": "scTNFR2(118)-Fc(Δab) (745) (Fc fusion)", "chain": "[about 150 residues not given here]GGGGSSSRTPSDKPVAHVVANPQAEGQLQWLNRRANALLANGVELRDNQLVVPSEGLYLIYSQVLFKGQGCPSTHVLLTHTISRIAVSYQTKVNLLSAIKSPCQRETPEGAEAKPWYEPIYLGGVFQLEKGDRLSAEINRPDYLNFRESGQVYFGIIALGGGGSSSRTPSDKPVAHVVANPQAEGQLQWLNRRANALLANGVELRDNQLVVPSEGLYLIYSQVLFKGQGCPSTHVLLTHTISRIAVSYQTKVNLLSAIKSPCQRETPEGAEAKPWYEPIYLGGVFQLEKGDRLSAEINRPDYLNFRESGQVYFGIIALGGSGGGGSGGDKTHTCPPCPAPPVAGPSVFLFPPKPKDTLMISRTPEVTCVVVDVSHEDPEVKFNWYVDGVEVHNAKTKPREEQYNSTYRVVSVLTVLHQDWLNGKEYKCKVSNKGLPSSIEKTISKAKGQPREPQVYTLPPSRDELTKNQVSLTCLVKGFYPSDIAVEWESNGQPENNYKTTPPVLDSDGSFFLYSKLTVDKSRWQQGNVFSCSVMHEALHNHYTQKSLSLSPGK", "notes": "as for B1"}}, "key": {"[1]": {"target": "T1, human TNFR2 on stably transfected cells (MEF-TNFR2, HeLa-TNF-R2) (human, UniProt P20333 23-461)", "T1 construct": "whole, on cells; Same receptor on two transfected cell lines; the cell line is named under assay; also called human TNF receptor 2", "T1 sequence (looked up)": "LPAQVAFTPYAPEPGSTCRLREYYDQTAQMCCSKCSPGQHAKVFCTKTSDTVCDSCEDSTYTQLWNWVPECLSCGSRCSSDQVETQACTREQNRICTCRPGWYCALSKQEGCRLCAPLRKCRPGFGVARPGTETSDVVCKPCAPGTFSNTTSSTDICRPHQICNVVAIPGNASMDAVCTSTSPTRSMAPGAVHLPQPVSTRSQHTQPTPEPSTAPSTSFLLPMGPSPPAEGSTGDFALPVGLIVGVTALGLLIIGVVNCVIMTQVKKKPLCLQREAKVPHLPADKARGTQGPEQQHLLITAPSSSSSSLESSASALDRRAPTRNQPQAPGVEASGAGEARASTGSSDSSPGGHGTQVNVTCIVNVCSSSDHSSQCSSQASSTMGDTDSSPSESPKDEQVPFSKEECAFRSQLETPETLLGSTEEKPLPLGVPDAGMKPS", "experiment": "flow cytometry on MEF-TNFR2 cells", "description": "The binding of the scTNFR2-Fc(Δab) complexes to mouse embryonic fibroblasts (MEFs) stably transfected with human TNFR1 (MEF-TNFR1) or human TNFR2 (MEF-TNFR2) (Krippner-Heidenreich et al., 2002, J. Biol. Chem. 277, 44155-44163) was analyzed by flow cytometry. To this, cells were trypsinized and washed once in ice-cold FACS buffer (PBS, 2% FBS, 0.05% sodium azide). 200,000 cells per sample were incubated with serially diluted scTNFR2-Fc(Δab) complexes in 100 μl FACS buffer for 2 h at 4° C. Next, unbound proteins were removed by two washing steps with FACS buffer, followed by detection with Anti-Human IgG (γ-chain specific)-R-Phycoerythrin antibody (Sigma-Aldrich, 1:500) for 1 h at 4° C. After two final washing steps with FACS buffer, cells were analyzed with a MACSQuant® Analyzer 10 equipped with a 585/40 nm filter."}, "[2]": {"target": "T1, human TNFR2 on stably transfected cells …", "experiment": "flow cytometry on HeLa-TNF-R2 cells after 3 days at 37 °C in 50% human blood plasma, experiment 3", "description": "(§1) FIG. 10: Stability of scTNFR2-Fc(Δab) complexes in human blood plasma. The integrity of the scTNFR2-Fc(Δab) complexes after incubation for 0 days (control), 3 days or 8 days in 50% human blood plasma at 37° C. was tested by their ability to bind HeLa-TNF-R2 cells in flow cytometry. The percentage of intact protein (mean±S. D., n=4) was calculated from reciprocals of the EC₅₀ values which were normalized to the non-incubated control (100%). Statistical analysis was performed by two-way ANOVA and Dunnett's post-test. Results were summarized as ****p <0.0001; ***p <0.001; **p <0.01; *p <0.05; n. s.=not significant.\n(§2) The stability of the scTNFR2-Fc(Δab) proteins in human blood plasma after incubation periods of 3 and 8 days at 37° C. was assayed by binding of protein samples to HeLa cells stably overexpressing TNF-R2 (HeLa-TNF-R2, Richter et al., 2012, Mol. Cell Biol. 32, 2515-2529). […] After incubation, samples were stored at −80° C. and thawed prior testing the protein integrity by binding to HeLa-TNF-R2 in flow cytometry. […] Bound protein was detected with goat anti-human IgG Fcγ fragment specific-R-phycoerythrin antibody (Jackson ImmunoResearch, 1:500) for 1 h at 4° C. After two final washing steps with FACS buffer, cells were analyzed with a MACSQuant® VYB flow cytometer equipped with a 586/15 nm filter for detection of phycoerythrin."}, "[3]": {"target": "T1, human TNFR2 on stably transfected cells …", "experiment": "flow cytometry on HeLa-TNF-R2 cells after 8 days at 37 °C in 50% human blood plasma, experiment 1", "description": "as §1, §2"}, "[4]": {"target": "T1, human TNFR2 on stably transfected cells …", "experiment": "flow cytometry on HeLa-TNF-R2 cells after 0 days at 37 °C in 50% human blood plasma (control), experiment 2", "description": "as §1, §2"}, "[5]": {"target": "T1, human TNFR2 on stably transfected cells …", "experiment": "flow cytometry on HeLa-TNF-R2 cells after 0 days at 37 °C in 50% human blood plasma (control), experiment 3", "description": "as §1, §2"}}}
{"binder": "B1", "values": [{"measurement": "EC50", "setting": "[1]", "result": 62, "unit": "pM"}, {"measurement": "EC50", "setting": "[2]", "result": 65.4, "unit": "pM"}, {"measurement": "EC50", "setting": "[3]", "result": 57.6, "unit": "pM"}, {"measurement": "EC50", "setting": "[4]", "result": 61.8, "unit": "pM"}, {"measurement": "EC50", "setting": "[5]", "result": 62.9, "unit": "pM"}]}
{"binder": "B2", "values": [{"measurement": "EC50", "setting": "[1]", "result": 62, "unit": "pM"}, {"measurement": "EC50", "setting": "[2]", "result": 78.4, "unit": "pM"}, {"measurement": "EC50", "setting": "[3]", "result": 82, "unit": "pM"}, {"measurement": "EC50", "setting": "[4]", "result": 52.7, "unit": "pM"}, {"measurement": "EC50", "setting": "[5]", "result": 55.8, "unit": "pM"}]}
